From the supplement of paper PMC10338343
± gives the standard deviation. The list shows a part of the results, in another mix than the full data.

The sequences below were run on MIWI (PIWIL1) piRISC loaded with piRNA #1 (30 nt) (assay: pre-steady-state target cleavage rate (min^-1); MIWI and MILI are mouse PIWI proteins and EfPiwi is from a freshwater sponge; tags in brackets are library labels; higher = faster piRNA-guided slicing of the target). Conditions: guide: piRNA #1 5'p-UGAGGUAGUAGGUUGUAUAGUAUCCAGAGG; auxiliary factor: 500 nM mouse GTSF1.
Outline: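 Sequencing of uncleaved targets, normalised to depth and to weakly complementary targets, was the readout of this Cleave-'n-Seq assay. A transcribed, DNA-blocked target RNA library (0.1 nM) was mixed with 1 nM active affinity-purified piRISC carrying one synthetic guide, with or without 500 nM GTSF1 partner protein, in HEPES–potassium acetate buffer at 33 °C for 0–8 or 0–960 min. Three trials were pooled, k3 was capped at 0.0001 min^-1, and a burst-and-steady-state fit gave the pre-steady-state cleavage rate.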

| Sequence | pre-steady-state target cleavage rate |
| --- | --- |
| GGAGUGGAUACUUUACAACCUAGUACCUCA | 0.221 ± 0.034 |
| GGAGUGGAUACUAUACAACCUACAUGCUCA | 0.00675 ± 0.0024 |
| GGAGACGGAUACUAUACAACCUACUACCUCA | 1.7 ± 0.08 |
| GCUCUGGAUACUAUACAACGUACUACCACA | 1.24 ± 0.093 |
| GGAGAGGAUACUAUACAACUUACUACCUCA | 0.309 ± 0.021 |
| GGAGACCUUACUAUACAACCUACUCCCUCA | 0.863 ± 0.072 |
| GGUCUGGAUACUAUUCAACGUACUACCUCA | 0.937 ± 0.067 |
| GGAGAGGAUACUAUACAACCUACUACGUCA | 0.432 ± 0.031 |
| GGAGAGGAAACUAUACUACCUACUACCUCA | 1.09 ± 0.08 |
| GGAGACCUAUGAUAUGUUGGUACUUCCUCA | < 0.0001 |
| GGUCUGGAUACUCAUACAACCUACUACCUCA | 1.42 ± 0.089 |
| GGUCUGGUUACAAUACAACCUACUACCUCA | 1.59 ± 0.12 |
| GGAGUGGAUUCUAUACAACCUACUUCCUCA | 0.0356 ± 0.0079 |
| GGACUGGAUACAAUACUACCUACUACCUCA | 1.02 ± 0.12 |
| CCUCUCGAUACUAUUCAACCUACUACCUCA | 2.27 ± 0.15 |
| GGUCUGGUUACUAUACAACCUACUAGCUCA | 0.105 ± 0.018 |
| GGAGACCAUACUUUACAACCUACUACCACA | 0.892 ± 0.1 |
| GGUCUCGAUACUAUACUACCUACUACCUCA | 1.51 ± 0.11 |
| GGAGACGAUACUAUACAACGUACUACGUCA | 0.354 ± 0.063 |
| CCUCUGGAUACUAUACAACCUACUACGUGA | 1.06 ± 0.13 |
| GCUCUGGAUACUAUACAACCUACUAGCUCA | 1.26 ± 0.11 |
| GGAGACCUUACUAUACAUCCUACUACCUGA | 0.542 ± 0.059 |
| GGAGACCUAACUAUACAUCGUACUACCUCA | 0.00737 ± 0.0031 |
| GGUCUCGAUACUAUACAACCUACUAGCUCA | 0.184 ± 0.028 |
